Experimental findings from PMC12820563, “FoxP3 forms a head-to-head dimer in vivo and stabilizes its multimerization on adjacent microsatellites” are described below.

Some of the results follow.

In the assay the target is T1, MBP-FoxP1dN (Mus musculus, UniProt P58462 326-579).
T1 sequence: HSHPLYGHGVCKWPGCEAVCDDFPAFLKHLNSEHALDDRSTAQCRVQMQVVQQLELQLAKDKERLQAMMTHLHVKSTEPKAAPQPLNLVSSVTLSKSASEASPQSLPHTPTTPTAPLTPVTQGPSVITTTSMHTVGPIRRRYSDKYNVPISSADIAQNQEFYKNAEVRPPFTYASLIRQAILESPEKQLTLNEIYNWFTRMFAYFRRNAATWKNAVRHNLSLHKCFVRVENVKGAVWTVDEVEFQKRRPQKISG
The assay is described as follows: PD-seq (MBP pull-down with sequencing); 20 mM Tris-HCl pH 7.5, 100 mM NaCl, 1.5 mM MgCl2, 0.4 uM protein, 0.1 uM dsDNA library, 30 min, room temperature, amylose pull-down; high values mean tight binding. The following applies: protein: recombinant; tags: His6-MBP; chain copies: 2; dsDNA, one strand shown. The method in brief:
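His6-MBP-tagged mouse FoxP3 or FoxP1 fragment lacking the N-terminus, expressed in E. coli, was mixed at 0.4 µM with 0.1 µM Klenow-filled double-stranded degenerate DNA library. Incubation was 30 min at room temperature in Tris pH 7.5 buffer with NaCl and MgCl2. Complexes were caught on amylose resin and washed three times; DNA was released with proteinase K, PCR-barcoded and Illumina-sequenced. Binding is reads-per-million enrichment, pull-down over input, with replicates pooled.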
With “GATGATTGTTCTCCCAGCTGATGAATTATTCAGATCGAGTAAACAAATTTTCCTAATCTTTCTGTTCAAGCGCCATCTAC”, the binding signal was 0.97 RPM ratio (pull-down/input). For “GATGATTGTTCTCCCAGCTGATGAATTGGCGGGTTCGAGTAAACAAATTTTCCTAATCTTTCTGTTCAAGCGCCATCTAC” the value was 0.805 RPM ratio (pull-down/input); for “GATGATTGTTCTCCCAGCTGATGAATTTAGCGCGTCGAGTAAACAAATTTTCCTAATCTTTCTGTTCAAGCGCCATCTAC”, 1 RPM ratio (pull-down/input); for “GATGATTGTTCTCCCAGCTGATGAATTAGAGGGGTCGAGTAAACAAATTTTCCTAATCTTTCTGTTCAAGCGCCATCTAC”, 0.823 RPM ratio (pull-down/input). For the sequence “GATGATTGTTCTCCCAGCTGATGAATTCACGGCATCGAGTAAACAAATTTTCCTAATCTTTCTGTTCAAGCGCCATCTAC”, the binding signal is 1.02 RPM ratio (pull-down/input).

With “GATGATTGTTCTCCCAGCTGATGAATTTGGTCAGTCGAGTAAACAAATTTTCCTAATCTTTCTGTTCAAGCGCCATCTAC”, the binding signal was 0.894 RPM ratio (pull-down/input). For “GATGATTGTTCTCCCAGCTGATGAATTGCACGTCTCGAGTAAACAAATTTTCCTAATCTTTCTGTTCAAGCGCCATCTAC”, the binding signal is 1.15 RPM ratio (pull-down/input). Turning to “GATGATTGTTCTCCCAGCTGATGAATTCGCATTTTCGAGTAAACAAATTTTCCTAATCTTTCTGTTCAAGCGCCATCTAC”, the binding signal is 1.22 RPM ratio (pull-down/input).

Take “GATGATTGTTCTCCCAGCTGATGAATTAGTCCCCTCGAGTAAACAAATTTTCCTAATCTTTCTGTTCAAGCGCCATCTAC”: the binding signal was 0.831 RPM ratio (pull-down/input). Consider “GATGATTGTTCTCCCAGCTGATGAATTCATTGTCTCGAGTAAACAAATTTTCCTAATCTTTCTGTTCAAGCGCCATCTAC”, for which the binding signal was 0.891 RPM ratio (pull-down/input). On to “GATGATTGTTCTCCCAGCTGATGAATTCGAACGCTCGAGTAAACAAATTTTCCTAATCTTTCTGTTCAAGCGCCATCTAC”, for which the binding signal is 0.872 RPM ratio (pull-down/input).

“GATGATTGTTCTCCCAGCTGATGAATTAAGGTCCTCGAGTAAACAAATTTTCCTAATCTTTCTGTTCAAGCGCCATCTAC”: the binding signal was 0.832 RPM ratio (pull-down/input). Consider “GATGATTGTTCTCCCAGCTGATGAATTCCTGTGCTCGAGTAAACAAATTTTCCTAATCTTTCTGTTCAAGCGCCATCTAC”, for which the binding signal is 0.908 RPM ratio (pull-down/input).

With “GATGATTGTTCTCCCAGCTGATGAATTCTCAAGCTCGAGTAAACAAATTTTCCTAATCTTTCTGTTCAAGCGCCATCTAC”, the binding signal is 0.86 RPM ratio (pull-down/input). Regarding “GATGATTGTTCTCCCAGCTGATGAATTGTGGAATTCGAGTAAACAAATTTTCCTAATCTTTCTGTTCAAGCGCCATCTAC”, the binding signal was 1.01 RPM ratio (pull-down/input). The value for “GATGATTGTTCTCCCAGCTGATGAATTGCGAACGTCGAGTAAACAAATTTTCCTAATCTTTCTGTTCAAGCGCCATCTAC” was 1.03 RPM ratio (pull-down/input); that for “GATGATTGTTCTCCCAGCTGATGAATTCGGACAGTCGAGTAAACAAATTTTCCTAATCTTTCTGTTCAAGCGCCATCTAC” was 0.795 RPM ratio (pull-down/input). With “GATGATTGTTCTCCCAGCTGATGAATTAGGAATATCGAGTAAACAAATTTTCCTAATCTTTCTGTTCAAGCGCCATCTAC”, the binding signal is 1.07 RPM ratio (pull-down/input). As for “GATGATTGTTCTCCCAGCTGATGAATTCTGGGTATCGAGTAAACAAATTTTCCTAATCTTTCTGTTCAAGCGCCATCTAC”, the binding signal was 0.839 RPM ratio (pull-down/input). Regarding “GATGATTGTTCTCCCAGCTGATGAATTGGGGATTTCGAGTAAACAAATTTTCCTAATCTTTCTGTTCAAGCGCCATCTAC”, the binding signal is 0.909 RPM ratio (pull-down/input).

On to “GATGATTGTTCTCCCAGCTGATGAATTGGAGCGGTCGAGTAAACAAATTTTCCTAATCTTTCTGTTCAAGCGCCATCTAC”, for which the binding signal was 0.777 RPM ratio (pull-down/input).

“GATGATTGTTCTCCCAGCTGATGAATTACTATACTCGAGTAAACAAATTTTCCTAATCTTTCTGTTCAAGCGCCATCTAC”: the binding signal was 1.14 RPM ratio (pull-down/input). The value for “GATGATTGTTCTCCCAGCTGATGAATTCGCCGTGTCGAGTAAACAAATTTTCCTAATCTTTCTGTTCAAGCGCCATCTAC” was 0.828 RPM ratio (pull-down/input); that for “GATGATTGTTCTCCCAGCTGATGAATTCGGCATTTCGAGTAAACAAATTTTCCTAATCTTTCTGTTCAAGCGCCATCTAC” was 0.93 RPM ratio (pull-down/input). Take “GATGATTGTTCTCCCAGCTGATGAATTTGTGCCGTCGAGTAAACAAATTTTCCTAATCTTTCTGTTCAAGCGCCATCTAC”: the binding signal is 1.05 RPM ratio (pull-down/input). The value for “GATGATTGTTCTCCCAGCTGATGAATTATTGCTGTCGAGTAAACAAATTTTCCTAATCTTTCTGTTCAAGCGCCATCTAC” was 1.67 RPM ratio (pull-down/input); that for “GATGATTGTTCTCCCAGCTGATGAATTAGAACGATCGAGTAAACAAATTTTCCTAATCTTTCTGTTCAAGCGCCATCTAC” was 0.879 RPM ratio (pull-down/input). As to “GATGATTGTTCTCCCAGCTGATGAATTAGGCTCGTCGAGTAAACAAATTTTCCTAATCTTTCTGTTCAAGCGCCATCTAC”, the binding signal was 0.761 RPM ratio (pull-down/input). The value for “GATGATTGTTCTCCCAGCTGATGAATTCACCATTTCGAGTAAACAAATTTTCCTAATCTTTCTGTTCAAGCGCCATCTAC” was 0.937 RPM ratio (pull-down/input); that for “GATGATTGTTCTCCCAGCTGATGAATTCTACGTATCGAGTAAACAAATTTTCCTAATCTTTCTGTTCAAGCGCCATCTAC” was 1.01 RPM ratio (pull-down/input). Regarding “GATGATTGTTCTCCCAGCTGATGAATTATCATCTTCGAGTAAACAAATTTTCCTAATCTTTCTGTTCAAGCGCCATCTAC”, the binding signal was 1.05 RPM ratio (pull-down/input).
